The record followed here is the RNAGym collection of RNA variant scans (doi:10.1073/pnas.2313332121).

Variants at the background level are over-represented here. Bounds are passed on as bounds.

B1: TPR 5TU (parent)
chain: GGAUCUUCUCGAUCUAACAAAAAAGACAAAUCUGCCACAAAGCUUGAGAGCAUCUUCGGAUGCAGAGGCGGCAGCCUUCGGUGGCGCGAUAGCGCCAACGUUCUCAACUAUGACACGCAAAACGCGUGCUCCGUUGAAUGGAGUUUAUCAUG

The variants in this series derive from B1. As to the kind of experiment: polymerase ribozyme fitness, log enrichment relative to wild type (log ratio); higher = more active; in vitro selection for triplet polymerase activity. Summed up:
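The heterodimeric triplet polymerase ribozyme's subunits were each mutagenized into PCR-built libraries and transcribed. Every library was selected once, in triplicate, by annealing with a biotinylated primer, the partner subunit and triplets, incubating frozen at −7 °C, gel-excising extended constructs, capturing on streptavidin beads and running RT-PCR. Input and output libraries were Illumina-sequenced, with genotypes kept only at ≥10 input reads and ≥1 read per output. Fitness, from inverse-variance-weighted replicate averages, is the base-2 logarithm of genotype enrichment over wild-type enrichment.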
With U15G C32G A40C A49C A52G C76U C87U, the “polymerase ribozyme fitness (log ratio)” value was at most -4.2.

In the case of C14U U144G, the “polymerase ribozyme fitness (log ratio)” value is -0.898.

For A16C A66C G80A, the “polymerase ribozyme fitness (log ratio)” value was at most -4.2.

Consider C14U A115G, for which the “polymerase ribozyme fitness (log ratio)” value is -2.56.

On to U15G A19G A23U C32A C36U A37G A40U C103G, for which the “polymerase ribozyme fitness (log ratio)” value is at most -4.2.

For C14U C54U G84A G133U, the “polymerase ribozyme fitness (log ratio)” value was -3.87.

In the case of U15G A37U A52C U82G C85U G86A U139A U146C, the “polymerase ribozyme fitness (log ratio)” value was at most -4.2.

With A16C A40G A49U G84A A98G G117A A122G U151C, the “polymerase ribozyme fitness (log ratio)” value is at most -4.2.

As for U15C A20G A97G G140A, the “polymerase ribozyme fitness (log ratio)” value was -3.64.

In the case of U15G G42A A47G U135G, the “polymerase ribozyme fitness (log ratio)” value was at most -4.2.

In the case of C14U A30G A39C A49C G58A C96A A106C G126A, the “polymerase ribozyme fitness (log ratio)” value is at most -4.2.

C14U U61G A64C A66C U151G: the “polymerase ribozyme fitness (log ratio)” value is at most -4.2.

Turning to U15A C18G A52C C54U C87G C96U A106G, the “polymerase ribozyme fitness (log ratio)” value is at most -4.2.

For the variant A16C A21U U55A C87U U111C, the “polymerase ribozyme fitness (log ratio)” value was at most -4.2.

As to U15C U53A A98G C105G U146G, the “polymerase ribozyme fitness (log ratio)” value was at most -4.2.

Consider A16C A24G G68U C69A A121G G143A, for which the “polymerase ribozyme fitness (log ratio)” value is at most -4.2.

Take C14U A52G U56C G94A C108U A137C A138U: the “polymerase ribozyme fitness (log ratio)” value is at most -4.2.

For the variant U15G G94C A115C C116G, the “polymerase ribozyme fitness (log ratio)” value was -3.85.

On to U15C G71C G92A A106U C114A, for which the “polymerase ribozyme fitness (log ratio)” value is at most -4.2.

As for C14U C36A U56A A60C G67C C79A C87U U101C A115U, the “polymerase ribozyme fitness (log ratio)” value is at most -4.2.

For the variant U15A C96U G126U U130A, the “polymerase ribozyme fitness (log ratio)” value was at most -4.2.

On to U15A A21G C36G A60C C96A G124A A142C, for which the “polymerase ribozyme fitness (log ratio)” value is at most -4.2.

Take A16C A17C A24C U61A C93U U111A C123G: the “polymerase ribozyme fitness (log ratio)” value was at most -4.2.

For A16U A37U C76G U82G A89G A91G G143U, the “polymerase ribozyme fitness (log ratio)” value is at most -4.2.

Take A16G A17U C32U U33G U55G A91G A97U A120U G141C: the “polymerase ribozyme fitness (log ratio)” value is at most -4.2.

Consider A16U A17G G59C U77G G94U, for which the “polymerase ribozyme fitness (log ratio)” value is -3.85.

Regarding A16G C114G G133C, the “polymerase ribozyme fitness (log ratio)” value was at most -4.2.

For the variant U15G A21U U90G A122U C125A A137U, the “polymerase ribozyme fitness (log ratio)” value was at most -4.2.

Regarding A16C A49G A52U C72A C85U A121G U145G, the “polymerase ribozyme fitness (log ratio)” value was at most -4.2.

As for A16C G94C C105U A115G G152U, the “polymerase ribozyme fitness (log ratio)” value is at most -4.2.

With C14U C118U, the “polymerase ribozyme fitness (log ratio)” value was -1.65.

In the case of C14U C32A A49C C85A, the “polymerase ribozyme fitness (log ratio)” value was at most -4.2.

For A16U A52U G74A C87A A119U U148G, the “polymerase ribozyme fitness (log ratio)” value is at most -4.2.

Turning to A16U A60U C103A C105A, the “polymerase ribozyme fitness (log ratio)” value is at most -4.2.

Turning to U15A A21C A28C G67C A113C G128U, the “polymerase ribozyme fitness (log ratio)” value is at most -4.2.

In the case of A16U A20G C51U G80U C87A A110U A150U, the “polymerase ribozyme fitness (log ratio)” value is at most -4.2.

Take A16G A17G U56G U61G G68A C72U C114G G143U: the “polymerase ribozyme fitness (log ratio)” value is at most -4.2.

With U15G A39U C72U A91U A147U A150C, the “polymerase ribozyme fitness (log ratio)” value was at most -4.2.

In the case of U15G C27A C75A C85U C116A, the “polymerase ribozyme fitness (log ratio)” value is at most -4.2.

Regarding A16C C57U C129U G143A, the “polymerase ribozyme fitness (log ratio)” value was -1.91.

For U15G U31A, the “polymerase ribozyme fitness (log ratio)” value is 0.571.

For the variant A16G U33A A150G, the “polymerase ribozyme fitness (log ratio)” value was at most -4.2.

As to A16G C43G A60G A89U A91G G100C C105U A137C, the “polymerase ribozyme fitness (log ratio)” value is at most -4.2.

Consider A16U A19U C103G, for which the “polymerase ribozyme fitness (log ratio)” value was -4.18.

As to U15A A39G U53A A73U C85U G124U U134C U135C, the “polymerase ribozyme fitness (log ratio)” value was at most -4.2.

Turning to U15G C27G G50A A52C A64G C99U G136C, the “polymerase ribozyme fitness (log ratio)” value is at most -4.2.

As to A16C G34C A49C U77A A91C, the “polymerase ribozyme fitness (log ratio)” value is at most -4.2.

Regarding U15G A22U U56A A66C G117A A138G U146C, the “polymerase ribozyme fitness (log ratio)” value was at most -4.2.

In the case of U15C C32A A40C C51G C76U A91G A138U, the “polymerase ribozyme fitness (log ratio)” value is at most -4.2.

Turning to A16C G126A, the “polymerase ribozyme fitness (log ratio)” value was -0.0283.

With U15G A19C A47C G80A C85U C87G C105G, the “polymerase ribozyme fitness (log ratio)” value was at most -4.2.

In the case of C14U G88A A91G, the “polymerase ribozyme fitness (log ratio)” value is at most -4.2.

For C14U U15C A23C U44A C57U U135C, the “polymerase ribozyme fitness (log ratio)” value was at most -4.2.

Consider A16G A49C U56A G62U C105G, for which the “polymerase ribozyme fitness (log ratio)” value is at most -4.2.

On to A16U A19G C57A, for which the “polymerase ribozyme fitness (log ratio)” value was -2.39.

As to A16C A20C A23C C35U U82A G83U, the “polymerase ribozyme fitness (log ratio)” value is at most -4.2.

On to A16U A26G A52U C54U C99U, for which the “polymerase ribozyme fitness (log ratio)” value is at most -4.2.

As for C14U C69U G133U, the “polymerase ribozyme fitness (log ratio)” value is at most -4.2.

As to A16U A17U A40G G42U A52C C54G G68C C95G A121U, the “polymerase ribozyme fitness (log ratio)” value is at most -4.2.

In the case of C14U C76A C87U, the “polymerase ribozyme fitness (log ratio)” value is -3.49.

As for A16G U33G G83U U134C, the “polymerase ribozyme fitness (log ratio)” value was at most -4.2.

As for A16G C57A G62A C96U, the “polymerase ribozyme fitness (log ratio)” value was -1.89.

As for A16G A24U G59U A64C C75U G92A C132G G141C, the “polymerase ribozyme fitness (log ratio)” value was at most -4.2.

Take C14U G59U U61C C108A U109G G117A: the “polymerase ribozyme fitness (log ratio)” value is at most -4.2.

Take A16U C27A A28U C54U C75U G92C G136U: the “polymerase ribozyme fitness (log ratio)” value is at most -4.2.

Turning to A16G C54U A60C A89C C116U C125U A142C, the “polymerase ribozyme fitness (log ratio)” value was at most -4.2.

On to A16U A20U A23C A47G C99G U127G A138C A147C U148A C149A, for which the “polymerase ribozyme fitness (log ratio)” value is at most -4.2.

On to U15A C18U A19U A26G C27U A49C U144A, for which the “polymerase ribozyme fitness (log ratio)” value was at most -4.2.

In the case of C14U C35U C85U A106G A115G, the “polymerase ribozyme fitness (log ratio)” value is -3.81.

As for A16C U31G G50A C95A A138G, the “polymerase ribozyme fitness (log ratio)” value is at most -4.2.

For the variant A16U A17C U44C U56A C76U G88U C114A, the “polymerase ribozyme fitness (log ratio)” value was at most -4.2.

Consider C14U G50C G74C C93U A115U C116U, for which the “polymerase ribozyme fitness (log ratio)” value was at most -4.2.

Turning to A16G U31C C69U G88C, the “polymerase ribozyme fitness (log ratio)” value is at most -4.2.

As to C14U U61G C87U C125G, the “polymerase ribozyme fitness (log ratio)” value is at most -4.2.

Take A16G A20U C36U U55A G62A C85A: the “polymerase ribozyme fitness (log ratio)” value was at most -4.2.

On to U15G A37U U44A G48C A64G G92A, for which the “polymerase ribozyme fitness (log ratio)” value was at most -4.2.

A16G C27U A66U C93U A107G G136U U144C: the “polymerase ribozyme fitness (log ratio)” value was at most -4.2.

On to A16C U33C U77A, for which the “polymerase ribozyme fitness (log ratio)” value is at most -4.2.

For the variant A16U A20U G88A C95A, the “polymerase ribozyme fitness (log ratio)” value is at most -4.2.

Regarding A16U A41G A49G C72U C85U G128U, the “polymerase ribozyme fitness (log ratio)” value was at most -4.2.

Turning to A16G C27U A28G C43U U53A C57A U82G C93U G143C, the “polymerase ribozyme fitness (log ratio)” value was at most -4.2.

As for A16G C43A U53C G70A A73G, the “polymerase ribozyme fitness (log ratio)” value is at most -4.2.

For U15G A24U G92A A138G G141U, the “polymerase ribozyme fitness (log ratio)” value is at most -4.2.
